Assay results published in PubChem BioAssay AID602310 (National Center for Advancing Translational Sciences (NCATS), 2012).
“And” between values parts separate entries of the source, which are not always exact repeats. Identical values can stand only once. About 310 (0.076%) of roughly 410,000 compounds were called active. Inconclusive means that the source gave no clear call. Such entries were picked first, then a sample of the others. The call rests on the fitted dose curve; in most records, active means well fitted curve in the direction sought with a large enough effect; inconclusive means small, poorly fitted or top-dose-only effect; inactive means flat fitted curve, though single readings scatter. A potency beside an inconclusive call is a rough fit, not a confirmed value.

What follows are compounds tested against DNA dC->dU-editing enzyme APOBEC-3G (Homo sapiens) (UniProt Q9HC16) (assay: qHTS for Inhibitors of Vif-A3G Interactions: qHTS). Settings: HeLa A3G-eYFP + Vif (tagged APOBEC3G with the HIV-1 protein that degrades it), YFP fluorescence, overnight; series mostly up to 46.1 µM.
Outline: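 HeLa cells stably expressing Vif and C-terminally eYFP-tagged A3G, seeded overnight at 37 deg C, then exposed to compound by pintool overnight at 37 deg C. Rise in yellow fluorescence (Ex 488/Em 500-530, Acumen) marks blocked Vif-driven A3G degradation.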
Further: nearly all actives have a fitted effect of over 60% in size.
Potency means the concentration at half of the fitted maximal effect; tags describe the fitted curve by direction and shape.

Chain of UniProt Q9HC16 (Q9HC16 whole entry, looked up): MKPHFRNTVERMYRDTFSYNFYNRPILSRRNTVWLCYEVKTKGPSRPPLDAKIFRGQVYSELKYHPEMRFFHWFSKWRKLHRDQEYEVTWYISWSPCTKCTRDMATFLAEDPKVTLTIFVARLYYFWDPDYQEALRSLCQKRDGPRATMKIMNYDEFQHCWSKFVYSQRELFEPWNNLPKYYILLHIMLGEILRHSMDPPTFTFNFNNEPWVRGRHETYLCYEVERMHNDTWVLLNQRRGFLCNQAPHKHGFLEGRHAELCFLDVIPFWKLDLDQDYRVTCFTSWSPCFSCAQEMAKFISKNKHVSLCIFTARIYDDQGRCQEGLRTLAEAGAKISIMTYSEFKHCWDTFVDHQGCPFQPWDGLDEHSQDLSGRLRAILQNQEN

Question: Which Potency does the source give for COc1ccc(C2CC(c3ccccc3)=NN2c2ccc(Cl)c(C(=O)O)c2)cc1 (stereo not given) here?
Answer: The Potency was inconclusive: 22.4 µM [inhibitor, single point].

Question: With COc1ccccc1Cc1c(-c2cccc(Br)c2)nc2c(C)cc(Br)cn12 as the compound, how does the Potency read?
Answer: Its Potency is inconclusive: 22.4 µM [inhibitor, single point].

Question: For Cc1cc(NC(=O)CSc2nc(-c3ccco3)cc(C(F)(F)F)n2)no1, which Potency is on record?
Answer: Its Potency is inconclusive: 1.12 µM [inhibitor, full curve, poor fit].

Question: COc1ccc(S(=O)(=O)NCc2ccccn2)cc1NC(=O)c1ccccc1F was tested. Which Potency did it give?
Answer: The Potency was inconclusive: 2 µM [inhibitor, full curve, poor fit].

Question: For COc1ccc(CCNC(=O)c2cc([N+](=O)[O-])ccc2N2CCOCC2)cc1, which Potency is on record?
Answer: The Potency was inconclusive: 15.8 µM [inhibitor, single point].

Question: For O=C(O)c1cc(O)c2c(c1)[C@@H]([C@H]1c3cc(C(=O)O)cc(O)c3C(=O)c3c(O[C@@H]4O[C@H](CO)[C@@H](O)[C@H](O)[C@H]4O)cccc31)c1cccc(O[C@@H]3O[C@H](CO)[C@@H](O)[C@H](O)[C@H]3O)c1C2=O, which Potency is on record?
Answer: The Potency was “inactive”.

Question: How did the Potency turn out when CNc1ccc(/C=C2\C=Cc3ccccc32)cc1I was run?
Answer: Its Potency is inconclusive: 10 µM [inhibitor, partial curve, poor fit].

Question: S=C1NC[C@H](Cc2ccccc2)N1CC1CCN(CCCC2CCCC2)CC1 was tested. Which Potency did it give?
Answer: The Potency was “inactive”.

Question: With CC(C)c1cc(NC(=O)CCl)on1 as the compound, how does the Potency read?
Answer: Its Potency is inconclusive: 35.5 µM [inhibitor, single point].

Question: COc1cc(C(=O)Nc2ccc3c(c2)CCN3C(C)=O)cc(OC)c1OC was tested. Which Potency did it give?
Answer: The Potency was inconclusive: 2.51 µM [inhibitor, partial curve, poor fit].

Question: COc1ccc(C(=O)N2CCN(c3cccc(Cl)c3)CC2)c(OC)c1 was tested. Which Potency did it give?
Answer: Its Potency is inconclusive: 3.98 µM [inhibitor, full curve].

Question: CCCC(CCC)c1nc2ccncc2[nH]1 was tested. Which Potency did it give?
Answer: The Potency was “inactive”.

Question: Which Potency does the source give for CN(C)c1ccc(/C=C/c2ccnc3c(Cl)cccc23)cc1 here?
Answer: Its Potency is active: 3.55 µM.

Question: With COC(=O)c1ccc(NC(=O)CC2C(=O)N(c3cccc(F)c3)C(=O)N2CC(C)C)cc1 (stereo not given) as the compound, how does the Potency read?
Answer: The Potency was “inactive”.

Question: With C[C@H](O)[C@@H]1CN2CCc3c([nH]c4ccccc34)[C@@H]2C[C@@H]1N(C)C(=O)Nc1cc(Cl)cc(Cl)c1 as the compound, how does the Potency read?
Answer: Its Potency is inconclusive: 11.2 µM [inhibitor, single point].

Question: With C=CCn1cc(/C=N/NC(=O)COc2cccc3cccnc23)c2ccccc21 as the compound, how does the Potency read?
Answer: Its Potency is inconclusive: 35.5 µM [inhibitor, single point].

Question: Which Potency does the source give for CN(C)c1ccc(C(=O)Nc2sc(Nc3ccccc3)nc2C(N)=O)cc1 here?
Answer: The Potency was inconclusive: 35.5 µM [inhibitor, single point].

Question: With COc1ccc(OC)c(NC(=O)c2cc(-c3cc(C)ccc3O)n[nH]2)c1 as the compound, how does the Potency read?
Answer: The Potency was inconclusive: 22.4 µM [inhibitor, single point].

Question: Which Potency does the source give for O=C(CCl)NNC(=O)c1c(O)c2ccccc2[nH]c1=O here?
Answer: Its Potency is inconclusive: 35.5 µM [inhibitor, single point].

Question: How did the Potency turn out when COc1ccc(OC)c(S(=O)(=O)Nc2ccccc2O)c1 was run?
Answer: Its Potency is “inactive”.

Question: How did the Potency turn out when O=C(NC1CCCC(C(F)(F)F)C1)c1ccc([N+](=O)[O-])o1 (stereo not given) was run?
Answer: Its Potency is inconclusive: 20 µM [inhibitor, partial curve, poor fit].

Question: For COc1ccccc1-c1cc(C(F)(F)F)nc(S(=O)(=O)CCCC(=O)Nc2ccccc2F)n1, which Potency is on record?
Answer: Its Potency is inconclusive: 20 µM [inhibitor, single point].

Question: For CCOc1ccc(NC(=O)Cn2cc(C(=O)c3ccc(F)cc3)c(=O)c3cc4c(cc32)OCO4)cc1, which Potency is on record?
Answer: The Potency was “inactive”.

Question: How did the Potency turn out when CCOC1=CC2=C(C(=O)C(Cl)=CC2=O)[C@@H]2CN(S(=O)(=O)c3ccc(C)cc3)[C@@H](c3ccccc3)[C@H]12 was run?
Answer: Its Potency is inconclusive: 8.91 µM [inhibitor, partial curve].

Question: Which Potency does the source give for CCN1C(=O)C(CC(=O)Nc2ccccc2)S/C1=N\c1ccccn1 (stereo not given) here?
Answer: Its Potency is inconclusive: 12.6 µM [inhibitor, partial curve, poor fit].

Question: For O=c1c(Cl)c(NCCCO)cnn1-c1nc2ccccc2[nH]1, which Potency is on record?
Answer: The Potency was inconclusive: 17.8 µM [inhibitor, single point].

Question: How did the Potency turn out when CCOC(=O)c1sc(NS(=O)(=O)c2ccccc2)nc1C was run?
Answer: The Potency was “inactive”.

Question: COc1ccc(-c2cc(NC(C)=O)c3ncc(-c4ccc(OC)c(OC)c4)n3c2)c(OC)c1 was tested. Which Potency did it give?
Answer: The Potency was inconclusive: 25.1 µM [inhibitor, single point].

Question: With COc1cc2c(C(=O)N3CCN(c4cccc(Cl)c4)CC3)cn(C)c(=O)c2cc1OC as the compound, how does the Potency read?
Answer: Its Potency is inconclusive: 6.31 µM [inhibitor, partial curve, poor fit] and inconclusive: 2.82 µM [inhibitor, full curve, poor fit].

Question: How did the Potency turn out when CC(=Nc1ccccc1)C1=C(O)C(Cc2ccccc2)NC1=O (stereo not given) was run?
Answer: The Potency was inconclusive: 2.24 µM [inhibitor, full curve, poor fit].

Question: With O=C1ON=C(c2ccccc2)/C1=C/c1ccco1 as the compound, how does the Potency read?
Answer: Its Potency is “inactive”.

Question: Which Potency does the source give for CC=Cc1cc2c(c(=O)o1)C(=O)C(O)C(C)O2 (stereo not given) here?
Answer: Its Potency is inconclusive: 22.4 µM [inhibitor, single point].

Question: For Cc1cccn2c(=O)c(C=O)c(Cl)nc12, which Potency is on record?
Answer: The Potency was inconclusive: 17.8 µM [inhibitor, single point].

Question: For COc1ccc(NC(=O)/C(C#N)=C\C=C\c2ccco2)cc1, which Potency is on record?
Answer: The Potency was inconclusive: 6.31 µM [inhibitor, full curve, poor fit].

Question: How did the Potency turn out when COc1ccc(-c2csc3ncnc(Sc4nnnn4C)c23)cc1 was run?
Answer: Its Potency is inconclusive: 12.6 µM [inhibitor, single point].

Question: How did the Potency turn out when Cc1ccc(NC(=S)N/N=C2\CC3CC=CC23)c(C)c1 (stereo not given) was run?
Answer: The Potency was “inactive”.

Question: For Cc1noc2ncnc(Oc3cc(Cl)ccc3Cl)c12, which Potency is on record?
Answer: The Potency was inconclusive: 35.5 µM [inhibitor, single point].

Question: With CCC1=Nc2cc(C(=O)NCc3ccco3)ccc2Sc2ccccc21 as the compound, how does the Potency read?
Answer: Its Potency is inconclusive: 1.58 µM [inhibitor, full curve, poor fit].

Question: CCOc1cc(N2CCOCC2)c(OCC)cc1NC(=O)c1cc(-c2ccco2)nc2ccccc12 was tested. Which Potency did it give?
Answer: The Potency was inconclusive: 28.2 µM [inhibitor, partial curve, poor fit].

Question: Which Potency does the source give for CCOC(=O)Nc1nc2ccc(Cn3cccc3)cc2[nH]1 here?
Answer: Its Potency is inconclusive: 2.24 µM [inhibitor, full curve, poor fit].
